Source: PubChem BioAssay AID624296 (National Center for Advancing Translational Sciences (NCATS), 2012)
Among all 350,000 compounds or so, about 9,900 (2.8%) were called active. The inconclusive results got no clear call from the source; some entries with a clear call stand among them for comparison. Calls come from the whole dose curve; as a rule, active = well fitted activation curve with a large enough effect; inconclusive = small, poorly fitted or top-dose-only effect; inactive = no such curve, though single readings can be large or run the other way. Potencies of inconclusive entries are left out as doubtful fits.

Assay: A quantitative high throughput screen for small molecules that induce DNA re-replication in MCF 10a normal breast cells. For activity, positive = re-replication: % of control where 0% means no effect. Note: nearly all actives have a fitted effect of over 50% in size.
Conditions: MCF 10A DNA re-replication, Hoechst nuclear intensity, 48 h; activity, positive = re-replication: at 46.1 µM (top of the series)
Potency is the fitted concentration of half-maximal effect; tags give direction and shape of the fitted curve.

Structure (SMILES)	Potency	activity, positive = re-replication
CCCCNC(=O)/C(C#N)=C/c1ccc(F)cc1F	inconclusive [activator, single point]	–
CN1CCN(C(=O)C2=C[C@@H](c3ccccc3)C[C@@H](OCc3ccc(CO)cc3)O2)CC1	inconclusive [activator, single point]	–
Cc1ccc(NC(=O)c2ccc(N3CCCC3=O)cc2)cc1S(=O)(=O)N1CCCCC1	inactive	–
O=C(O)c1cccc(-c2ccccc2)c1O	inactive	–
CCOCc1c(C(=O)NCc2ccccc2CN2CCCC2)oc2ccccc12	inconclusive [activator, single point]	–
COc1cc(NC(=O)c2cccs2)c(C(=O)OCC(=O)NC(=O)NCc2ccccc2)cc1OC	active: 14.6 µM	–
Clc1ccc2nc(-c3ccccc3)nc(C(Cl)Cl)c2c1	inconclusive [activator, full curve, poor fit]	–
CC(N)C(=O)NCC(=O)NC1CSSCC(C(=O)O)NC(=O)C(CO)NC(=O)C(C(C)O)NC(=O)C(Cc2ccccc2)NC(=O)C(C(C)O)NC(=O)C(CCCCN)NC(=O)C(Cc2c[nH]c3ccccc23)NC(=O)C(Cc2ccccc2)NC(=O)C(Cc2ccccc2)NC(=O)C(CC(N)=O)NC(=O)C(CCCCN)NC1=O (stereo not drawn)	inactive	–
COc1ccc(C(=O)NCC2CCCCC2)cc1S(=O)(=O)N1CCCC1	inactive	–
O=C1/C(=C/c2cccnc2)Sc2ccccc21	inconclusive [activator, single point]	–
Cc1nc(N)sc1-c1csc(Nc2ccc(Cl)cn2)n1	inconclusive [activator, single point]	–
CCCCOC(=O)NC1CCc2cc(OC)c(OC)c(OC)c2-c2ccc(SC)c(=O)cc21 (stereo not drawn)	–	inconclusive: 83.4% [activator]
Cc1cccc(NS(=O)(=O)c2ccc(C(=O)N3CCN(c4ccccc4O)CC3)cc2)c1C	active: 23.1 µM	–
FC(F)(F)c1ccccc1/C=N/Nc1ccccn1	inconclusive [activator, full curve, poor fit]	–
CN1/C(=C\C=C2/C(=O)Oc3ccccc3C2=O)C(C)(C)c2ccccc21	inconclusive [activator, partial curve, poor fit]	–
CN1CCN(CC(=O)N2c3ccccc3C(C)(c3ccccc3)CC2(C)C)CC1 (stereo not drawn)	inconclusive [activator, single point]	–
O=C(CSc1nnc(Cc2cccs2)n1Cc1ccco1)Nc1cccc(Cl)c1	active: 6.51 µM	–
O=C(Nc1ccn(CCCN(CCCn2ccc(NC(=O)OCc3ccccc3)nc2=O)CCc2cc3ccccc3[nH]2)c(=O)n1)OCc1ccccc1	inconclusive [activator, full curve]	–
O=C(N/N=C/c1ccccc1O)NC12CC3CC(CC(C3)C1)C2	inconclusive [activator, single point]	–
COC(=O)/C=C/C(=O)N1CCN(c2ccccc2C)CC1	inconclusive [activator, partial curve, poor fit]	–
O=C(NC1CCCc2c1cnn2-c1ccc(F)cc1F)c1cnccn1 (stereo not drawn)	inconclusive [activator, partial curve, poor fit]	–
O=C(NCc1cccnc1)C(=O)Nc1ccc([N+](=O)[O-])cc1	inconclusive [activator, single point]	–
COc1ccc(OC)c(NC(=O)CSc2nnc(-c3cnccn3)n2C)c1	inactive	–
O=C(CN1CCN(S(=O)(=O)c2ccc(Cl)cc2)CC1)c1ccc(O)c(O)c1	inactive	–
C=CCn1c(SCC(=O)c2ccccc2)nnc1-c1ccc2c(c1)OCO2	inconclusive [activator, single point]	–

Structure (SMILES)	Potency	activity, positive = re-replication
Nc1c2c(nc3ccccc13)CCCC2	inconclusive [activator, full curve, poor fit]	–
CC1Cc2ccccc2N1C(=O)CNc1cccc(S(=O)(=O)N2CCCC2)c1 (stereo not drawn)	inconclusive [activator, single point]	–
COc1ccc(OCC(=O)NCc2nc(-c3ccccc3)no2)cc1	inconclusive [activator, partial curve, poor fit]	–
COCCNC(=O)c1onc(CSc2ccc(Cl)cc2)c1C(=O)O	inconclusive [activator, partial curve, poor fit]	–
CCOC(=O)c1cc2c(OC)ccc(OC)c2n1CC(=O)c1ccccc1	active: 23.1 µM	–
CC(C)c1nnc(NC(=O)C2CCN(c3cnccn3)CC2)s1	inactive	–
O=C(NCc1cccnc1)c1nnc(Cc2ccc(F)cc2)o1	inactive	–
O=C(c1ccc(F)cc1)N1CCN(c2ccc(N3CCOCC3)nn2)CC1	inconclusive [activator, single point]	–
Nc1nn(-c2ccccc2)c(N)c1N=Nc1ccccc1F	active: 8.2 µM	–
c1ccc(-c2cn(-c3ccccc3)c3ncnc(N4CCCCC4)c23)cc1	active: 16.4 µM	–
Cc1ccc2c(c1)c1c3n2CC(=C2C(=O)OC(C)(C)OC2=O)NC3CCC1 (stereo not drawn)	inactive	–
Cc1ccc(Nc2c([N+](=O)[O-])c(=O)n(C)c3ccccc23)cc1	inconclusive [activator, partial curve, poor fit]	–
CN(C)S(=O)(=O)c1cc(NC(=O)c2cc(=O)c3ccccc3o2)ccc1Cl	inconclusive [activator, single point]	–
Cn1c(C(=O)O)cc2c(=O)n3ccccc3nc21	inconclusive [activator, full curve, poor fit]	–
O=C(NNC(=O)c1ccccc1F)c1ccc(S(=O)(=O)N2CCCCC2)cc1	inactive	–
Cc1ccccc1NC(=O)CC1C(=O)NCCN1C(=O)c1cccc(Cl)c1 (stereo not drawn)	inactive	–
CC1CCCN(c2c3c(nc4ccccc24)CCCC3)C1 (stereo not drawn)	inconclusive [activator, single point]	–
COC(=O)c1sc(NC(=S)NC(=O)c2ccccc2F)nc1C	inactive	–
COc1ccnc(N2CCN(c3cccc(C(F)(F)F)c3)CC2)c1C#N	active: 20.6 µM	–
Clc1ccc(-c2csc(=Nc3cccnc3)n2CCCn2ccnc2)cc1Cl	inconclusive [activator, partial curve, poor fit]	–
COc1cc(C(=O)NC(=S)Nc2nccs2)cc(OC)c1OC	inactive	–
NNC(=O)CNC(c1ccccc1)c1cc(Br)ccc1NC(=O)c1cccc(Cl)c1 (stereo not drawn)	inconclusive [activator, single point]	–
O=C(CCl)N1CCN(S(=O)(=O)c2ccc3ccccc3c2)CC1	active: 14.6 µM	–
CC(=Nc1ccccc1)C1=C(O)C(CC(C)C)NC1=O (stereo not drawn)	inactive	–
Cc1ccc2[nH]c3c(=O)n4c(nc3c2c1)SCC4	inconclusive [activator, single point]	–

Structure (SMILES)	Potency	activity, positive = re-replication
C/C(=N\N=C\c1ccc(N(C)C)cc1)c1cccc([N+](=O)[O-])c1	inactive	–
CCCCn1c(-c2nonc2N)nc2ccccc21	inconclusive [activator, single point]	–
Cc1ccc2c(c1)[nH]c1c(N3CCN(Cc4ccccc4)CC3)ncnc12	inconclusive [activator, partial curve, poor fit]	–
O=C(Cc1c(F)c(F)c(F)c(F)c1F)Nc1nc(-c2ccccc2)cs1	active: 18.4 µM	–
CCOCCCNC(=O)c1ccc2c(c1)N=C(CC)c1cc(Br)ccc1S2	inconclusive [activator, full curve, poor fit]	–
O=C(c1cc2ccccc2o1)N(Cc1ccco1)Cc1cccs1	inconclusive [activator, full curve, poor fit]	–
CCn1c(=O)n(CC)c2cc(S(=O)(=O)N3CCCCC3)c(C)cc21	inactive	–
c1coc(CNc2nc(N3CCCCC3)nc3ccccc23)c1	inactive	–
CC(=O)c1sc(N/N=C\c2cccc(Br)c2)nc1C	active: 13 µM	–
CN(C)c1ccc(/C=C/c2ccc3c4ccccc4ccc3[n+]2-c2ccccc2)cc1	inconclusive [activator, partial curve]	–
CC1CCN(c2c(NCc3ccc(C(=O)N4CCc5ccccc54)cc3)c(=O)c2=O)CC1	active: 3.66 µM	–
COCCOC1CCN(C(=O)C2CCC(=O)N(Cc3cccc(F)c3)C2)CC1 (stereo not drawn)	inactive	–
CCc1nnc(NC(=O)CN2CCN(Cc3cccc(Cl)c3)CC2)s1	inactive	–
Cc1ccc2cc(CN(Cc3ccco3)C(=S)NCC3CCCO3)c(=O)[nH]c2c1 (stereo not drawn)	inactive	–
CCC1(C)N(O)C(C)(C)C(c2ccc(OC)cc2)=[N+]1[O-] (stereo not drawn)	inconclusive [activator, single point]	–
Cc1cc(SCC(=O)N/N=C/c2ccco2)nc2ccccc12	inactive	–
COc1cc(C(=O)NNC(=S)NC(=O)c2ccccc2C)cc(OC)c1OC	inconclusive [activator, single point]	–
O=C1CC2(CCCC2)CC(=O)N1c1ccccc1	inactive	–
O=c1cc(-c2ccccc2)oc2cc(O)cc(O)c12	inconclusive [activator, single point]	–
Cc1nnc(N/N=C/c2cccc(OCc3ccc(Cl)c(Cl)c3)c2)n1N	inconclusive [activator, single point]	–
CCOc1ccc(-n2c(C)cc(C(=O)CCl)c2C)cc1	active: 11.6 µM	–
CCCc1nc2ccccc2c(C(=O)OCC(=O)N2CCc3ccccc32)c1CC	active: 20.6 µM	–
Nn1c(Cc2cccc3ccccc23)nnc1SCc1c(Cl)cccc1Cl	inconclusive [activator, full curve]	–
